The campaign covered roughly 150,000 compounds. About 540 (0.36%) showed an effect of 50% or more. Some of the results follow.

Data on 54 compounds can be found in ChEMBL document CHEMBL4888484, “Replenishing the malaria drug discovery pipeline: Screening and hit evaluation of the MMV Hit Generation Library 1 (HGL1) against asexual blood stage Plasmodium falciparum ,using a nano luciferase reporter read-out” (2022).

The test relates to Plasmodium falciparum. Description: Primary screen in NF54 nanoGlo assay, in single point, at 2uM, 72h; a lower Z score goes with more inhibition. Type of test: functional, Erythrocyte. As to conditions: timepoint 72 hour.
Consider `CCN(C(=O)c1ccnn1C1CCC1)c1ccc(Br)cn1`, for which the “% Inhibition” value is reported as -13% and the Z score is 2.29.

`Cc1cnc(C)n1CCC1CCN(C(=O)CC2CCCCC2)CC1`: the “% Inhibition” value is given as -6% and the Z score is 0.78.

Consider `O=C(c1cc(-c2ccc3c(c2)OCO3)on1)N1CCc2ccccc2C1`, for which the “% Inhibition” value was -7% and the Z score came out at 1.24.

With `O=C(Nc1ccc2c(c1)OCCO2)N1CCCCCCC1`, the “% Inhibition” value is given as -11% and the Z score stood at 1.67.

`O=C(NCCF)c1cncn1-c1ccc(-c2cc(C(F)(F)F)cc(C(F)(F)F)c2)cc1`: the “% Inhibition” value is reported as -3% and the Z score stood at 0.41.

`Cc1cc(F)ccc1NC(=O)Cn1nc(C2CC2)c2c(C(F)F)cc(=O)[nH]c21`: the “% Inhibition” value was determined as 37% and the Z score was -4.92.

On to `Cc1nc(CN(C)Cc2c[nH]nc2C2CCCCC2)no1`, for which the “% Inhibition” value is 6% and the Z score is recorded as -0.82.

In the case of `COc1ccc(C(=O)C2CCN([C@@H](C)CN3CCOCC3)CC2)cc1`, the “% Inhibition” value worked out at 37% and the Z score is listed as -3.32.

Take `O=C(NCc1ccc(Cl)cc1)c1c(O)c2cccnc2[nH]c1=O`: the “% Inhibition” value is listed as -5% and the Z score was 0.65.

With `CCOc1ccccc1C(=O)Nc1c(-n2cnnc2)nn(C)c1C`, the “% Inhibition” value is 35% and the Z score is recorded as -4.7.

With `CC(=O)N1CCCN(C(=O)C[C@@H](c2ccccc2)c2cccc(Cl)c2)CC1`, the “% Inhibition” value is -11% and the Z score is reported as 1.

Regarding `CCN(C(=O)c1cc(F)cc(Br)c1)c1ncc[nH]1`, the “% Inhibition” value turned out to be 2% and the Z score was -0.2.

For the compound `COCCN1CC2(CCC1=O)CCN(C(=O)c1ccc(N(C)C)nc1)CC2`, the “% Inhibition” value is listed as -7% and the Z score was determined as 1.11.

Turning to `C[C@@H](C(=O)N1CCC(n2ccnn2)CC1)c1ccc(Cl)s1`, the “% Inhibition” value was -9% and the Z score came to 1.33.

`CCc1nc(CCNC(=O)N2C[C@H]3CCCC[C@H]3C2)no1`: the “% Inhibition” value is 12% and the Z score is given as -1.45.

As for `O=C1C2C(Cc3c[nH]c4ccccc34)NC3(C(=O)Nc4c(Cl)cccc43)C2C(=O)N1c1ccc2c(c1)OCO2` (stereo not drawn), the “% Inhibition” value is listed as -7% and the Z score is 0.92.

On to `CCCc1noc(CN(C)C(=O)c2n[nH]nc2C)n1`, for which the “% Inhibition” value is -3% and the Z score amounted to 0.43.

For `CCCc1nnc(NC(=O)CCC(=O)N2CCN(C(=O)c3ccco3)CC2)s1`, the “% Inhibition” value is reported as -6% and the Z score is 0.73.

Regarding `O=C(Nc1nc2c(s1)CNCC2)c1ccsc1`, the “% Inhibition” value was determined as 11% and the Z score was -1.41.

As for `Cc1cc(NC(=O)c2cccc(F)c2Cl)nnc1C`, the “% Inhibition” value is reported as 1% and the Z score is -0.09.

As to `O=C(c1cnn2ccccc12)N1CC(c2ccccc2F)C1`, the “% Inhibition” value was -4% and the Z score was 0.55.

Regarding `Cc1nc(CN(CCN2CCOCC2)c2ccccc2)oc1C`, the “% Inhibition” value is reported as -3% and the Z score is listed as 0.49.

Turning to `CC(C)c1ccc(/N=C(\NCc2cccnc2)NC(=O)c2cccc(N(C)C)c2)cc1`, the “% Inhibition” value worked out at 1% and the Z score is -0.12.

`CCn1ncc(NC(=O)N[C@H]2CCCC23CCCCC3)c1C(F)(F)F`: the “% Inhibition” value was 6% and the Z score was -0.68.

Consider `O=C(Cn1cnnn1)N1CCCCCC1CC(O)c1ccccc1` (stereo not drawn), for which the “% Inhibition” value is listed as -1% and the Z score is listed as 0.22.

In the case of `CCn1ncnc1CN(C)[C@@H](C)c1ccccn1`, the “% Inhibition” value was -2% and the Z score is listed as 0.29.

Consider `CC(C)(C)OC(=O)N1CCN(c2ccc3c(c2)CCC(=O)N3)CC1`, for which the “% Inhibition” value is -9% and the Z score is listed as 1.17.

`CC(C(=O)NCc1ccccc1)N1CCCCC1Cn1cccn1` (stereo not drawn): the “% Inhibition” value is reported as -4% and the Z score came out at 0.41.

Take `COc1cccc2c1CCc1c-2n[nH]c1C(=O)NCCc1ccco1`: the “% Inhibition” value is listed as -18% and the Z score was determined as 3.01.

Consider `CCS(=O)(=O)N1CCC[C@H]1C(=O)N1CCc2ccccc21`, for which the “% Inhibition” value was -19% and the Z score came out at 3.65.

Turning to `CC[C@@H](C(=O)N1CC(n2ccnn2)C1)c1ccccc1`, the “% Inhibition” value is -10% and the Z score worked out at 1.09.

Turning to `CC(C)(C)S(=O)(=O)[C@H]1CCN(S(=O)(=O)c2ccccc2C(F)(F)F)C1`, the “% Inhibition” value is 5% and the Z score is -0.81.

As for `Clc1cccc(-c2nc(-c3ccccc3)c(-c3ccc(-c4ccccc4)cc3)[nH]2)c1`, the “% Inhibition” value is on record as 1% and the Z score is listed as -0.17.

On to `O=c1ccncn1CC1CCN(CCc2ccc3c(c2)CCO3)CC1`, for which the “% Inhibition” value is on record as -6% and the Z score amounted to 0.91.

As for `CN(C(=O)c1ccccc1)C1CC2CCC(C1)N2C(=O)c1csc(=O)[nH]1` (stereo not drawn), the “% Inhibition” value is reported as -1% and the Z score came to 0.2.

For `CC(C)c1nccc(CN2CC[C@@H](CO)[C@@H](O)C2)n1`, the “% Inhibition” value was -8% and the Z score is given as 0.88.

With `CC1CCC(C(=O)OC(C)(C)C)CN1C(=O)c1ocnc1C1CC1` (stereo not drawn), the “% Inhibition” value was -15% and the Z score was determined as 1.69.

For `CN(C(=O)c1cnc(O[C@H]2CCOC2)c(Cl)c1)c1ccccc1`, the “% Inhibition” value is on record as -8% and the Z score is on record as 1.5.

Regarding `O=C(NS(=O)(=O)c1ccc2c(c1)OCCCO2)c1cc2c(s1)CCC2`, the “% Inhibition” value worked out at 43% and the Z score is recorded as -6.18.

`Cc1cc(C(=O)N2CCC(N3CCc4cc(F)ccc43)CC2)cc(O)n1`: the “% Inhibition” value stood at 0% and the Z score was found to be 0.05.

Regarding `CC(=O)N[C@@H](CC(C)C)C(=O)Nc1cc(C)[nH]c(=O)n1`, the “% Inhibition” value is reported as 8% and the Z score is -1.08.

`CCN1CCN(C2CCN(Cc3nc(-c4ccc(C(=O)OC)cc4)no3)CC2)CC1`: the “% Inhibition” value is reported as -5% and the Z score was found to be 0.78.

Consider `Fc1ccc(Oc2ncccc2CNC2CCOCC2)cc1F`, for which the “% Inhibition” value was -1% and the Z score is 0.23.

As to `CCCn1c(=O)sc2cc(NC(=O)Cc3ccc(OC)cc3)ccc21`, the “% Inhibition” value is given as 11% and the Z score is recorded as -1.39.

Take `Cc1ccc(S(=O)(=O)/N=C(\CN2CCCC2)N2CCCC2)cc1`: the “% Inhibition” value was 0% and the Z score is listed as 0.03.

`CC1CC(C(=O)Nc2[nH]c(=O)ncc2F)CC(C)(C)C1` (stereo not drawn): the “% Inhibition” value was determined as 92% and the Z score was -13.24.

With `O=C(N1CCN(c2nccc(-c3ccc4c(c3)OCO4)n2)CC1)C(F)(F)C(F)F`, the “% Inhibition” value is -10% and the Z score is on record as 1.47.

On to `CC[C@H](N)C(=O)Nc1nn(-c2ccc(F)cc2)c2cccc(Oc3cccnc3)c12`, for which the “% Inhibition” value is -5% and the Z score worked out at 0.65.

`O=C(NCc1ccncc1)c1cn2c(n1)CC[C@H](c1cc(C(F)(F)F)cc(C(F)(F)F)c1)C2`: the “% Inhibition” value is on record as -11% and the Z score turned out to be 1.76.

With `O=C(CN1CCCS1(=O)=O)NCCc1cnc2ccccc2c1`, the “% Inhibition” value is reported as -10% and the Z score is 1.48.

Regarding `COc1cccc(C(=O)N2CCCCCCC2)n1`, the “% Inhibition” value is recorded as -7% and the Z score is 1.04.

As to `O=S(=O)(Nc1nnc2ccccn12)c1cc(F)c(F)c(F)c1`, the “% Inhibition” value was -16% and the Z score is reported as 1.83.

In the case of `Cc1ccc(-c2nc(C(=O)N(C)CCCc3cc(-c4cccc(F)c4)n(C)n3)cs2)o1`, the “% Inhibition” value is -9% and the Z score is 0.81.

For the compound `c1ccc(-c2noc(Cn3cnc4ccccc43)n2)nc1`, the “% Inhibition” value is on record as -6% and the Z score stood at 0.74.
